# Laboratory results: the supplement of paper PMC8728848
# Some of the results follow.
# B1: Cohesin-mDCIR (Macaca mulatta) (protein)
# chain: GLDDLDAVRIKVDTVNAKPGDTVRIPVRFSGIPSKGIANCDFVYSYDPNVLEIIEIEPGDIIVDPNPDKSFDTAVYPDRKIIVFLFAEDSGTGAYAITKDGVFATIVAKVKEGAPNGLSVIKFVEVGGFANNDLVEQKTQFFDGGVNVGDTTEPATPTTPVTTPTTTDDLDAASFQKYSQLLEKMTTKDLVHTTLECVKKNMTTEETAWSCCPKNWKPFSSNCYFISTESASWQKSEKDCARMEAHLLVINTREEQDFIFQNLQEESAYFVGLSDPEGQRHWQWVDRTPYNESSTFWHPHEPSDPDERCVVLNFRKTPKRWGWNDVHCIVHQRSVCEMMKIHLHHHHHH
# Key:
# Assay in all cases: glycan array binding signal (z-score within array); higher = stronger binding
# Details in all cases: glycan notation: IUPAC condensed, linker removed
# Neu5Ac(a2-8)Neu5Ac = biological target: Neu5Ac(a2-8)Neu5Ac
# Outline: (§1)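 Negative Z-scores can be read as non-binding. The Z-score is calculated within each array and then averaged across arrays of one protein sequence at different concentrations or buffers and across linkers. Arrays, 3228 in all, were curated from the Consortium for Functional Glycomics database and kept only where the protein sequence was available.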
# [1] = biological target: Neu5Ac(a2-8)Neu5Ac(a2-3)Gal(b1-3)GalNAc(b1-4)[Neu5Ac(a2-3)]Gal(b1-4)Glc
# Outline: as §1
# [2] = biological target: Neu5Ac(a2-8)Neu5Ac(a2-3)Gal(b1-3)GalNAc(b1-4)[Neu5Ac(a2-8)Neu5Ac(a2-3)]Gal(b1-4)Glc
# Outline: as §1
# [3] = biological target: Neu5Ac(a2-8)Neu5Ac(a2-3)Gal(b1-4)Glc
# Outline: as §1
# [4] = biological target: Neu5Ac(a2-8)Neu5Ac(a2-3)Gal(b1-4)GlcNAc
# Outline: as §1
# [5] = biological target: Neu5Ac(a2-8)Neu5Ac(a2-3)[Gal(b1-3)GalNAc(b1-4)]Gal(b1-4)Glc
# Outline: as §1
# [6] = biological target: Neu5Ac(a2-8)Neu5Ac(a2-3)[GalNAc(b1-4)]Gal(b1-4)Glc
# Outline: as §1
# [7] = biological target: Neu5Ac(a2-8)Neu5Ac(a2-8)Neu5Ac
# Outline: as §1
# [8] = biological target: Neu5Ac(a2-8)Neu5Ac(a2-8)Neu5Ac(a2-3)Gal(b1-4)Glc
# Outline: as §1
# [9] = biological target: Neu5Ac(a2-8)Neu5Ac(a2-8)Neu5Ac(a2-3)[Gal(b1-3)GalNAc(b1-4)]Gal(b1-4)Glc
# Outline: as §1
# [10] = biological target: Neu5Ac(a2-8)Neu5Ac(a2-8)Neu5Ac(a2-3)[GalNAc(b1-4)]Gal(b1-4)Glc
# Outline: as §1
# [11] = biological target: Neu5Ac(a2-8)Neu5Ac(a2-8)Neu5Ac(a2-8)Neu5Ac(a2-3)[GalNAc(b1-4)]Gal(b1-4)Glc
# Outline: as §1
# [12] = biological target: Neu5Ac(a2-8)Neu5Gc(a2-3)Gal(b1-4)GlcNAc
# Outline: as §1
# [13] = biological target: Neu5Ac(b2-6)Gal(b1-4)GlcNAc
# Outline: as §1
# Neu5Ac(b2-6)GalNAc = biological target: Neu5Ac(b2-6)GalNAc
# Outline: as §1
# [14] = biological target: Neu5Ac9Ac(a2-3)Gal(b1-3)GlcNAc
# Outline: as §1
# [15] = biological target: Neu5Ac9Ac(a2-3)Gal(b1-4)GlcNAc
# Outline: as §1
# [16] = biological target: Neu5Ac9Ac(a2-6)Gal(b1-4)GlcNAc
# Outline: as §1
# [17] = biological target: Neu5Gc(a2-3)Gal(b1-3)GlcNAc
# Outline: as §1
# [18] = biological target: Neu5Gc(a2-3)Gal(b1-3)[Fuc(a1-4)]GlcNAc
# Outline: as §1
# Neu5Gc(a2-3)Gal(b1-4)Glc = biological target: Neu5Gc(a2-3)Gal(b1-4)Glc
# Outline: as §1
# [19] = biological target: Neu5Gc(a2-3)Gal(b1-4)GlcNAc
# Outline: as §1
# [20] = biological target: Neu5Gc(a2-3)Gal(b1-4)GlcNAc(b1-3)Gal(b1-4)GlcNAc(b1-2)Man(a1-3)[Neu5Gc(a2-3)Gal(b1-4)GlcNAc(b1-3)Gal(b1-4)GlcNAc(b1-2)Man(a1-6)]Man(b1-4)GlcNAc(b1-4)GlcNAc
# Outline: as §1
# [21] = biological target: Neu5Gc(a2-3)Gal(b1-4)[Fuc(a1-3)]GlcNAc
# Outline: as §1
# [22] = biological target: Neu5Gc(a2-6)Gal(b1-4)GlcNAc
# Outline: as §1
# Neu5Gc(a2-6)GalNAc = biological target: Neu5Gc(a2-6)GalNAc
# Outline: as §1
# [23] = biological target: Neu5Gc(a2-8)Neu5Ac(a2-3)Gal(b1-4)GlcNAc
# Outline: as §1
# [24] = biological target: Neu5Gc(a2-8)Neu5Gc(a2-3)Gal(b1-4)GlcNAc
# Outline: as §1
# [25] = biological target: Neu5Gc(a2-8)Neu5Gc(a2-3)Gal(b1-4)GlcNAc(b1-3)Gal(b1-4)GlcNAc
# Outline: as §1
# [26] = biological target: Neu5Gc(a2-8)Neu5Gc(a2-6)Gal(b1-4)GlcNAc
# Outline: as §1
# [27] = biological target: Neu5Gc(b2-6)Gal(b1-4)GlcNAc
# Outline: as §1
binder,measurement,setting,value
B1,glycan array binding signal (z-score),Neu5Ac(a2-8)Neu5Ac,-0.387
same,glycan array binding signal (z-score),[1],-0.375
same,glycan array binding signal (z-score),[2],-0.345
same,glycan array binding signal (z-score),[3],-0.403
same,glycan array binding signal (z-score),[4],-0.392
same,glycan array binding signal (z-score),[5],-0.324
same,glycan array binding signal (z-score),[6],0.521
same,glycan array binding signal (z-score),[7],-0.433
same,glycan array binding signal (z-score),[8],-0.453
same,glycan array binding signal (z-score),[9],-0.45
same,glycan array binding signal (z-score),[10],0.263
same,glycan array binding signal (z-score),[11],-0.118
same,glycan array binding signal (z-score),[12],-0.358
same,glycan array binding signal (z-score),[13],-0.303
same,glycan array binding signal (z-score),Neu5Ac(b2-6)GalNAc,-0.406
same,glycan array binding signal (z-score),[14],1.53
same,glycan array binding signal (z-score),[15],-0.43
same,glycan array binding signal (z-score),[16],0.175
same,glycan array binding signal (z-score),[17],-0.061
same,glycan array binding signal (z-score),[18],0.459
same,glycan array binding signal (z-score),Neu5Gc(a2-3)Gal(b1-4)Glc,-0.032
same,glycan array binding signal (z-score),[19],-0.21
same,glycan array binding signal (z-score),[20],-0.014
same,glycan array binding signal (z-score),[21],-0.264
same,glycan array binding signal (z-score),[22],-0.109
same,glycan array binding signal (z-score),Neu5Gc(a2-6)GalNAc,0.214
same,glycan array binding signal (z-score),[23],-0.271
same,glycan array binding signal (z-score),[24],-0.453
same,glycan array binding signal (z-score),[25],-0.29
same,glycan array binding signal (z-score),[26],-0.402
same,glycan array binding signal (z-score),[27],-0.351
